Measurements reported in the supplement of paper PMC4466236.
In all, about 33,000 sequences were measured (“E-score (dimensionless, -0.5 to 0.5)”: median about -0.058, highest 2% from about 0.35 on). This is one part of the list.

tested on: MvaT; assay: PBM 8-mer E-score (mean of HK and ME arrays) (E-score (dimensionless, -0.5 to 0.5)); higher = stronger relative binding preference; most listed sequences are background and not binding sites
Outline: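 Reported values are rank-based E-scores, taken as the mean of two universal arrays and parsed with a custom script. Each 8-mer score falls between -0.5 and 0.5. The arrays, ME and HK, were double-stranded 60-mers with a constant 25-mer primer region and a variable 35-mer region covering all 8-mers. They were probed, by an earlier protocol, with full-length P. aeruginosa MvaT carrying an N-terminal glutathione S-transferase fusion.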

Row | Sequence | PBM 8-mer E-score
1 | GATTAGGA | -0.0421
2 | CTCAGGAA | -0.116
3 | GCGCTCGA | -0.148
4 | TAATTCTA | 0.278
5 | CTCCTGGA | -0.132
6 | GCCGGACA | -0.046
7 | ACGTCGGG | -0.0915
8 | CCGCGTTA | -0.194
9 | ATCCAGTG | -0.138
10 | CCACTTGC | -0.228
11 | ACCCATCT | 0.00798
12 | CAAGAACA | 0.0124
13 | ATCTCCGC | -0.113
14 | GGTATGTA | 0.0752
15 | GAGATGGA | -0.187
16 | ACGAGGGA | -0.253
17 | CGCAAAGC | -0.162
18 | CTCCGAAA | -0.00856
19 | AAATGAAA | 0.28
20 | AGGCTTAA | -0.0836
21 | CGTCGGAA | 0.0575
22 | CGACTCGA | -0.233
23 | CAATGAGA | -0.0714
24 | ACGGTTAT | 0.222
25 | AAATTGGA | 0.158

Row | Sequence | PBM 8-mer E-score
26 | ACCAGGTA | -0.0271
27 | AACGATTG | -0.0259
28 | AGGTAGTG | -0.0636
29 | CCTTGGAG | -0.213
30 | ACCGTCCT | -0.185
31 | GAGTGTGA | 0.14
32 | CGGCCAAC | -0.151
33 | ATCCCTAA | -0.0446
34 | GCAGCGGC | -0.233
35 | AAAGCCGC | -0.157
36 | CGGAGGGA | -0.311
37 | GAGAAACA | -0.0137
38 | CCGTTGCG | -0.127
39 | CACACGTA | -0.00571
40 | CCATAATA | 0.287
41 | CCCTGAGG | -0.195
42 | CAGTGATC | -0.172
43 | AAAAGGTT | 0.102
44 | ATTCATCC | 0.0328
45 | AGATAGTC | -0.0708
46 | CGTATTAG | 0.0961
47 | TCTAGAGA | -0.00944
48 | GGCTGAAA | -0.161
49 | CTCTCGCC | -0.191
50 | AGATCGAA | 0.0212

Row | Sequence | PBM 8-mer E-score
51 | GAATTACA | 0.175
52 | GCGGGAAA | -0.0411
53 | ATGTCGGA | -0.0433
54 | CCCATCGC | -0.106
55 | GTTTCTTA | 0.104
56 | CGTGACCC | -0.258
57 | AGTGGCCG | -0.152
58 | TGTGATAA | 0.186
59 | AAGTGCAA | 0.205
60 | TCGCCCAA | -0.165
61 | ATGAATAC | 0.145
62 | CAACCGGG | -0.23
63 | TGATTCAA | 0.0557
64 | CACATGGA | 0.00819
65 | CTCATAGA | -0.032
66 | TATACTGA | 0.284
67 | ACAAAGTG | 0.0626
68 | ACAATCGA | 0.0252
69 | ACGCGCGG | -0.234
70 | ATTATTAA | 0.446
71 | CACGCCGG | -0.154
72 | TGAAAAAA | 0.15
73 | ATGAGGAC | -0.0363
74 | GCCATCGC | -0.219
75 | CGTTTGCC | -0.163

Row | Sequence | PBM 8-mer E-score
76 | AGATAATG | 0.295
77 | GGACTCTA | -0.281
78 | ACGGCGAG | -0.181
79 | GCATACAA | 0.247
80 | AACGGGAA | 0.108
81 | ACGTGTAG | -0.148
82 | ACCACGTG | -0.188
83 | GCATCCCC | -0.212
84 | AATGAAGT | 0.183
85 | TCAAATGA | 0.116
86 | ATATCGGG | 0.0544
87 | AGTCACCC | -0.143
88 | CGTCGGTA | -0.176
89 | GAATAAAA | 0.354
90 | ACCAGCGC | -0.212
91 | GCTTGATA | 0.0512
92 | TCCTAAGA | -0.0438
93 | ATATGATG | 0.261
94 | GTTGTAAA | 0.205
95 | AGGGCAGC | -0.326
96 | AAACATGG | 0.0524
97 | ATGCACAA | 0.187
98 | TCGGCGAA | -0.111
99 | GCTTGCCA | -0.216
100 | AGCGCGCT | -0.0914

Row | Sequence | PBM 8-mer E-score
101 | AGGTATTA | 0.264
102 | ACTACTAG | 0.0778
103 | CTACCGCA | -0.134
104 | AAGAGGTG | -0.164
105 | CATAATCG | 0.141
106 | ATTAAGTC | 0.28
107 | CTGAAGTC | -0.114
108 | ACTCTAAA | 0.132
109 | TTCCTAAA | 0.116
110 | GCATCACC | -0.246
111 | GGTGACAA | 0.0559
112 | CTGAACGC | -0.144
113 | CAATACGC | -0.0528
114 | CCGGCCGG | -0.304
115 | AGAAGTCC | 0.00936
116 | CCCGGCAA | -0.11
117 | GCCCTGCC | -0.363
118 | AGGTGAGG | -0.23
119 | CAGGATGG | -0.189
120 | TAGCGATA | 0.0958
121 | AGGCGAAA | -0.177
122 | CGGAGAGA | -0.145
123 | AACCATGA | 0.0535
124 | CAGGTTAC | -0.0018
125 | AATGCATT | 0.28

Row | Sequence | PBM 8-mer E-score
126 | ATCCAACG | -0.0255
127 | ACACACTA | 0.245
128 | GACGGGAC | -0.0757
129 | GAATCCAA | -0.0958
130 | AAGGAAAC | -0.0856
131 | ACCCAGTG | -0.016
132 | CGCGCTCA | -0.16
133 | ATACGACC | -0.0941
134 | AAGCGAAC | -0.0929
135 | CGCCAGGA | -0.211
136 | AGCGACGG | -0.116
137 | ACGAGCAG | -0.147
138 | AAATCATA | 0.267
139 | CTGGGCTA | -0.153
140 | CTATTTCA | 0.00869
141 | CACCGGAC | -0.199
142 | ACCGTCGT | -0.051
143 | CATCTTCC | -0.00584
144 | ACATTGGC | -0.124
145 | GTCGGTTA | 0.129
146 | CGGGCGAA | -0.119
147 | GGGCGAAC | -0.0666
148 | AAGGGTCA | -0.0925
149 | ATCTTCTA | 0.195
150 | GCATTCCC | -0.185

Row | Sequence | PBM 8-mer E-score
151 | TACCTCAA | 0.05
152 | ACGGAAGC | -0.158
153 | CACCCTGC | -0.106
154 | TTGTGAAA | 0.136
155 | ACATGATC | -0.155
156 | AAGGTTTA | 0.193
157 | CGCCAGCG | -0.0941
158 | GACCAACC | -0.0441
159 | AAAGCAGA | 0.014
160 | CAAGAGGA | -0.0736
161 | ACATACCC | 0.025
162 | GCAAAGGA | -0.132
163 | ATCAACTA | 0.201
164 | ATATTCCC | 0.225
165 | GAATTGCC | 0.106
166 | CGATTTAA | 0.238
167 | CATTAAAC | 0.334
168 | CTGTAACC | 0.00617
169 | CAGGGATG | -0.221
170 | AGTGGACC | -0.0337
171 | AATGGGGC | -0.1
172 | ATGTCCGA | -0.0808
